Laboratory results reported in the RNAGym collection of RNA variant scans (doi:10.1093/nar/gkz1192).
Read counts are not given, so values of variants with three or more changes are uncertain.

B1: CPEB3 Ribozyme (parent)
chain: UAACAGGGGGCCACAGCAGAAGCGUUCACGUCGCAGCCCCUGUCAGAUUCUGGUGAAUCUGCGAAUUCUGCUGUAUAUCUC

Variants of: B1
Experiment: self-cleavage, relative activity (ratio to wild type); higher = more cleavage; in vitro, sequencing
Procedure, shortened: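 For each CPEB3 ribozyme variant, relative activity is its cleaved/total read fraction divided by the unmutated ribozyme's. Barcoded error-prone PCR libraries were transcribed by T7 RNA polymerase (5 hours, 37°C) and held in DNase I for 15 min before an EDTA stop, with cleavage occurring throughout. Template-switching reverse transcription and Illumina sequencing were used to read the RNAs. A 5-read minimum applied, and results are the mean of three batches.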

| Variant | self-cleavage |
| --- | --- |
| A5U C11G U26A A47G G52A | 0.06 |
| A5U C11G U43A U76C | 0.73 |
| A5U C11U A28G C79U | 0.37 |
| A5U C12A U26A C40G U41C C50U A64G | 0.18 |
| A5U C12U A18U U43C | 0.34 |
| A5U C12U G33U U67C | 0.12 |
| A5U C12U U26A A65U U80C | 0.19 |
| A5U C14A U25G U41C | 0.12 |
| A5U C14U A15U A28G U31C U43A | 0.35 |
| A5U C14U U60C U72C | 0.82 |
| A5U C17A U43C A64G | 0.09 |
| A5U C17G U25A A28G U31C U54C U72G | 0.14 |
| A5U C17G U25C U66A U72C C79A | 0.11 |
| A5U C17G U43C A57G | 0.14 |
| A5U C17G U51A | 0.39 |
| A5U C17U U25C A64G C79G U80C | 0.21 |
| A5U C23A A35G C44G U48C U74C U78C | 0.05 |
| A5U C23A C71A | 0.14 |
| A5U C23G A35U U76A | 0.09 |
| A5U C23G A45G A56G A57G A65U U80A | 0.06 |
| A5U C23U A57G U58C | 0.54 |
| A5U C23U U25C A47G U80C | 0.11 |
| A5U C29U U67C | 0.19 |
| A5U C32U U41A | 0.37 |

| Variant | self-cleavage |
| --- | --- |
| A5U C44A A45G U48C U78C U80C | 0.09 |
| A5U C44G U72A | 0.44 |
| A5U C44G U80C | 0.83 |
| A5U C50U U67C | 0.22 |
| A5U C62A U69A C71U | 0.32 |
| A5U C62G U78C | 0.15 |
| A5U C62U A64U U80C | 0.3 |
| A5U C62U U66C | 0.21 |
| A5U G6A A18U U26C U43A U80A | 0.06 |
| A5U G6A U26A U43A A47G U80A | 0.05 |
| A5U G6A U76C | 0.23 |
| A5U G7A U31C A65G U72C U74C U80C | 0.03 |
| A5U G7C A21G U43C U60C | 0.44 |
| A5U G7C C40A | 0.14 |
| A5U G7U A28U A56G U58A G70A | 0.06 |
| A5U G7U U48A A56G U58C U69C | 0.16 |
| A5U G7U U51G A64G | 0.12 |
| A5U G8A A20G A47G | 0.49 |
| A5U G8A C14A A75G | 0.16 |
| A5U G8C A35G U48G A57G U69C U78C | 0.07 |
| A5U G8C U66C U78C U80C C81U | 0.2 |
| A5U G8U A45G A64G U80C | 0.08 |
| A5U G8U C23A | 0.05 |
| A5U G8U U41A A57G U58C U69C U76A | 0.1 |

| Variant | self-cleavage |
| --- | --- |
| A5U G8U U43A U49C | 0.37 |
| A5U G9A C39U U72C | 0.21 |
| A5U G9A G30A A47G U54C | 0.42 |
| A5U G9A G33A U43C U80C | 0.18 |
| A5U G9C U48C A57G U69C | 0.07 |
| A5U G9U A28G U41A U49C U78C | 0.04 |
| A5U G10A A13C U51C U54C | 0.23 |
| A5U G10A A13U U25C A35G U51C | 0.27 |
| A5U G10A A15G A35G U54G U66A | 0.2 |
| A5U G10A A15G U54A | 0.64 |
| A5U G10A G73A | 0.71 |
| A5U G10A U41A U51C A77U | 0.33 |
| A5U G10A U48C | 0.21 |
| A5U G10C C29U U31C G63A G70C G73A | 0.05 |
| A5U G10C U31A U67A | 0.08 |
| A5U G10U A28G A65G U69A U72G U74A | 0.03 |
| A5U G19U U25G U41C A64U | 0.34 |
| A5U G19U U69C | 0.19 |
| A5U G22A U25C U26A | 0.44 |
| A5U G22A U51C G73U | 0.35 |
| A5U G22C U43A | 0.28 |
| A5U G24A U41C A45G U58A | 0.48 |
| A5U G30A U48C U49C | 0.08 |
| A5U G30A U49A U76C A77G | 0.33 |

| Variant | self-cleavage |
| --- | --- |
| A5U G30U C39A U41C U78C | 0.24 |
| A5U G33A U51G U60C C62G U72C | 0.2 |
| A5U G36U U51A U54A A64G | 0.14 |
| A5U G52U A56U U58A U72A | 0.26 |
| A5U G53A A56G | 0.88 |
| A5U G53C G61C U69A | 0.26 |
| A5U G70C U78C U80C | 0.35 |
| A5U U25A A35G | 0.46 |
| A5U U25A A45G | 0.08 |
| A5U U25C A28G U54C U67C | 0.11 |
| A5U U25C G33C U72C | 0.06 |
| A5U U25C G42A | 0.15 |
| A5U U25C U31A A45U U49C U69C U72A | 0.08 |
| A5U U25C U31A U49C U69C | 0.11 |
| A5U U25C U41A A45U U54A A64G U67C | 0.18 |
| A5U U25C U41C U51C U76C U78C | 0.15 |
| A5U U25C U67C | 0.3 |
| A5U U25C U80A | 0.14 |
| A5U U26A A35U G42U U43C | 0.1 |
| A5U U26A A64G A65G A77G U78A | 0.13 |
| A5U U26A G55A | 0.87 |
| A5U U26A U43C U66C | 0.23 |
| A5U U26C A28U A35G C68A | 0.7 |
| A5U U26C A35G C39U A64G U72C A77G | 0.6 |

| Variant | self-cleavage |
| --- | --- |
| A5U U26C A35G U54G U60C A64U U67A | 0.21 |
| A5U U26C C71U U74C | 0.41 |
| A5U U26C C79U | 0.81 |
| A5U U26C U31C U41C U49C U78C | 0.08 |
| A5U U26C U41C U51A C59U U66C C81A | 0.11 |
| A5U U26C U48A U51A G63U | 0.14 |
| A5U U31A A45U U49A U66C | 0.09 |
| A5U U31A U43A | 0.6 |
| A5U U31C C38A | 0.37 |
| A5U U31C C71U | 0.31 |
| A5U U31C G42A U49A | 0.45 |
| A5U U31C U54C | 0.94 |
| A5U U31C U58C | 0.5 |
| A5U U31C U60A U69C U72G | 0.32 |
| A5U U31C U66C | 0.63 |
| A5U U31G A47U A65G U80C | 0.09 |
| A5U U41A A56U U58C A64G | 0.15 |
| A5U U41A U43G U51C A57G U58A A77C | 0.07 |
| A5U U41A U51C C62G U66C G73A | 0.03 |
| A5U U41A U60A | 0.24 |
| A5U U41C A47G | 0.99 |
| A5U U41C A56G | 0.66 |
| A5U U41C A64G G73A | 1.29 |
| A5U U41G A77U | 0.36 |

| Variant | self-cleavage |
| --- | --- |
| A5U U43A A45G A64G U69C | 0.26 |
| A5U U43A A47U U49C A64G | 0.31 |
| A5U U43A U54C U80C | 1.18 |
| A5U U48C A57G U58C | 1.13 |
| A5U U48C U54C U72A | 0.25 |
| A5U U48C U78A | 0.56 |
| A5U U51A A65G | 0.38 |
| A5U U51A C59A | 0.26 |
| A5U U51C A56G U69G | 0.4 |
| A5U U51C U69C U74A | 0.81 |
| A5U U51G A56U A57G U78A | 0.38 |
| A5U U51G U58C | 0.57 |
| A5U U54C U60G | 0.34 |
| A5U U54C U80C | 1.09 |
| A5U U54G U60C | 0.5 |
| A5U U58A A65G | 0.14 |
| A5U U60A G70U | 0.22 |
| A5U U60C U72A U80C | 0.58 |
| A5U U67C U74G | 0.46 |
| A5U U72C A75G | 0.86 |
| G6A A13C A35G | 0.38 |
| G6A A13C C39U A45G A47U U72A | 0.05 |
| G6A A13G A18G A47G U69C | 0.28 |
| G6A A13G A18U | 0.31 |

| Variant | self-cleavage |
| --- | --- |
| G6A A13G A28G C29U G33C C68A U78A | 0.04 |
| G6A A13G A35G C38U U67G U80A | 0.06 |
| G6A A13G A45C U72C U78C | 0.16 |
| G6A A13G G55C A64U U76C | 0.07 |
| G6A A13U A18G A57U A64U | 0.31 |
| G6A A13U C34U A77U | 0.33 |
| G6A A15G A20G A21U U26C G30A U69A | 0.3 |
| G6A A15G A20G G55A A56U | 0.25 |
| G6A A15G A21G C34A U51A U67C U76A | 0.04 |
| G6A A15G A65G U74C U76C | 0.14 |
| G6A A15G G36A C38U A56G C62U A75C | 0.03 |
| G6A A15G U26A U41G A45C A64G | 0.06 |
| G6A A15G U51A A75U U80C | 0.28 |
| G6A A15U C23G A28G U41C | 0.35 |
| G6A A15U U43C U72A U76A | 0.08 |
| G6A A18C U41C U66C | 0.09 |
| G6A A18G A57G | 0.22 |
| G6A A18G G24A A35G A57G | 0.06 |
| G6A A18U A35U U51C U72A U76C | 0.09 |
| G6A A18U A56G A57U C59U A75G | 0.06 |
| G6A A20G A21G U51A U66C | 0.21 |
| G6A A20G C39A A45G U67C | 0.06 |
| G6A A20G U31C U58G | 0.04 |
